Measurements published in publication PMC12136788.
This is one part of the list.

T1: UNK ZnF1-3 (human, UniProt Q9C0B0 31-174)
T1 sequence: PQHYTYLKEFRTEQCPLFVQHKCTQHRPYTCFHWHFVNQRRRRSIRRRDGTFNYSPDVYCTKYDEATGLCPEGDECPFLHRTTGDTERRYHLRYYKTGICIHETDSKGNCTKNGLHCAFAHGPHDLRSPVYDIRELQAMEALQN

B1: chr11:122931392:122931393:-_ENSG00000109971_ENST00000227378|hu_mus|FALSE|FALSE (ssRNA)
RNA: GGGAGUUCUACAGUCCGACGAUCUGUCAGAACCAUGGAGGACACUUCCUCUGGGUAGAAACUUUUUGUCUCCCCUUUGUAUUCCACUUGGACCUUGGGCCUGCCUGCAUCAUUCACCACCAUGAAGGGCCAGUGCUUCAUAUCCAACAGAGGAUUGAGCAUCA
B2: 108469022_108489850_1049_CDS_ENSG00000108018_ENST00000263054|human|control|control (ssRNA)
RNA: GGGAGUUCUACAGUCCGACGAUCGUCAAUGUAGCCUGGAAAAGGCUGAUUCCUGUUGGCCUCUGUACAGUUCUGCAUUCGGCAAGUUAGAUAAUGUGAAUGACCAUCCACAGUUCUGGCCUCAAGAUGCACAAGGUCUGGUUCCAACAGAGGAUUGAGCAUCA
B3: 71623340_71624446_1636_CDS_ENSMUSG00000026192_ENSMUST00000027384|mouse|control|control (ssRNA)
RNA: GGGAGUUCUACAGUCCGACGAUCCUUGUCCACCCAUUCCUUCUUCUCCGCCUCCGUGAGUAACUCAGGAACCUCUUCGAACAGUGCUUCCCAUUUCACCAGGUCUUCGCCCUCACCGAUAGUGCCGGUCACAUACUGAUCAAUCAACAGAGGAUUGAGCAUCA
B4: chr10:88205819:88205820:+_ENSMUSG00000060904_ENSMUST00000116234|mus_hu|motif|central (ssRNA)
RNA: GGGAGUUCUACAGUCCGACGAUCCUUCAUUUCAGGGGAGAAGAAUGGACUGAAUUACUGUCUGCUUUUUAAUGUUUCAACGGACCAUUCCAUUGCCUCAUCAAGGCCGGUGCCUUUGGUUGCUGACGUUUUGAAUAUCUGCCACAACAGAGGAUUGAGCAUCA
B5: chr8:15480645:15480646:+_ENSG00000104723_ENST00000503731|hu_hu|motif|central (ssRNA)
RNA: GGGAGUUCUACAGUCCGACGAUCCAUUCGGAAGAUUGAGCGUCUGGAACUCCAUUCCAUCAGCUGCUCUACUUUUUCAGCGGAAAGAUUCUCCUUUUUCUUCUGUCCUCCCCCGAGCUGGAUGCAGAGCAGCAGCAGCAGGAGCAACAGAGGAUUGAGCAUCA
B6: chr14:90871201:90871202:+_ENSG00000198668_ENST00000553542|hu_hu|motif|central (ssRNA)
RNA: GGGAGUUCUACAGUCCGACGAUCCCAAUACAUGCAGAUUUUGUGUGUGUGGACAGAAGGUACUUUUGACAUUCAGUUUUGCGGUAUAGAAACAGAAUGAAUAAAUGAACUUUUUUCUUUUUUCUUUUUUUUGCAAGAGGUAAGCAACAGAGGAUUGAGCAUCA
B7: chr17:61683753:61683754:+_ENSG00000136463_ENST00000258975|hu_mus|FALSE|FALSE (ssRNA)
RNA: GGGAGUUCUACAGUCCGACGAUCAAAAAAGUGGCGUGCUCCUUCAGCCAUCAUUCCCCCAUUCUUGUUCAGGAUAUAUUUAAUGUCCAGAUGGCACUUGGGACCACUGUUUGAUAACGCCUCAAUGAGCAGAGAAGAGCCUCCCAACAGAGGAUUGAGCAUCA
B8: 82834618_82834738_3251_CDS_ENSG00000038427_ENST00000343200|human|control|control (ssRNA)
RNA: GGGAGUUCUACAGUCCGACGAUCAGAUGGUGAAGUCUGGGUGUCCCUAAAUGCUGCAUCUCCAGAGCCUUCCAUCAUUACCGUUUCUUCUUUUGCUAUGGGAUGAGACACUGUUGAGUAUUCUCUAAAGUCACCACUGAAAUCCAACAGAGGAUUGAGCAUCA
B9: chr4:137866854:137866855:+_ENSMUSG00000028757_ENSMUST00000030538|mus_mus|motif|central (ssRNA)
RNA: GGGAGUUCUACAGUCCGACGAUCGUCAUCACCAUCAAAGGGGACCCACUUGCCAUUGGAGAGCUGUUCUAUGAUGAUGCGGUACUCCACCAAGUCGGUGACAGUGUAGGCAUUGGGUGGAGCCAUCUCGCCCACCCGGUGAUGCAACAGAGGAUUGAGCAUCA
B10: chr1:23636438:23636439:-_ENSG00000125944_ENST00000302271|hu_hu|motif|central (ssRNA)
RNA: GGGAGUUCUACAGUCCGACGAUCUUGUAGGGCAGAUUUCAAAAAGGUGUGAAGUUAUAACAAUUUAAAAACACAGUUAACCGGCUUCUAGGAAUGCAAAACAUACAAUCAUAGGUUAUUUUCAAUACAAGAAAACUUAAAUUUCAACAGAGGAUUGAGCAUCA
B11: chr3:176767854:176767855:-_ENSG00000177565_ENST00000430069|hu_hu|hu_hu_hu_mus_False|28_98 (ssRNA)
RNA: GGGAGUUCUACAGUCCGACGAUCGACAUCCUUGUUACUUGGAACAUCCUGCCCUCCUUCCCGUAUGCAGUGUCUAAGCACGAGCUGCGUAGGGCCACUCGUGCUGUUCUCACUAAGGUUCCAGAUUCUUGCCGUGGAGUCUCCCAACAGAGGAUUGAGCAUCA
B12: 18880459_18880579_3152_CDS_ENSG00000157106_ENST00000446231|human|control|control (ssRNA)
RNA: GGGAGUUCUACAGUCCGACGAUCCAGUGGGGUUCUCAGCUUAGAAAGAACAGUGAAUUGUGCAGCUUCCCAUAUGGCCCACUGCCAAAGGACAGCAUCUGUCUUCAGGAGAUUGCGUGGAAUUGUUGACUGGUCACGCUUAUCCAACAGAGGAUUGAGCAUCA
B13: chr17:55757426:55757427:+_ENSG00000153944_ENST00000284073|hu_hu|FALSE|FALSE (ssRNA)
RNA: GGGAGUUCUACAGUCCGACGAUCAGAAAGCUCACGCCCACCUCCCGCCCUGCACUUCACAACUUUGCUUCAGUGUGUGCUAAAGUUCCACCUGAAAAUUCAUACAGUCUCAGAAUUGGUACCAAAAUAUGGAGAGUCAUAUUACAACAGAGGAUUGAGCAUCA
B14: chr11:98018192:98018193:-_ENSMUSG00000018160_ENSMUST00000107545|mus_hu|FALSE|FALSE (ssRNA)
RNA: GGGAGUUCUACAGUCCGACGAUCUCCUGCACUGCCUGGCGAUUUAGAUCCACCUGUACUGGUAGGUGGGGUAAAAGGUCUGUUAGAAGAACUAUGAGAUGGAGACUUUCCCUCAGUGUCUGCCUUCUUCCGCUUUGGAGGCUUCAACAGAGGAUUGAGCAUCA
B15: chr13:104848895:104848896:-_ENSMUSG00000021710_ENSMUST00000109315|mus_hu|motif|central (ssRNA)
RNA: GGGAGUUCUACAGUCCGACGAUCAGGGAAAUAGUGUGGAUAUUUUAAGGUAAUUUUAUACUUGUCAUCAUCUGUCUUUUCGGAACUGUCAAUGAAAUCAUCAGGAAGAGCACCAAGUUCAGCCUUGGAAAAUACAAGGAAGGUCAACAGAGGAUUGAGCAUCA
B16: chr19:16212804:16212805:+_ENSG00000167460_ENST00000300933|hu_mus|hu_hu_hu_mus_False|18_98 (ssRNA)
RNA: GGGAGUUCUACAGUCCGACGAUCAACAAUUCUGGAGAAGAACAUCAAUGUAACAUGGAACAGCAUUAAAGCUCAGUCAGAAGGCACAUGGGCAACAAUGAUCACCCCAGCAUUCUCCUACGUUGACCUUAAAGACAAUCUGUUCAACAGAGGAUUGAGCAUCA
B17: chr7:143080189:143080190:+_ENSG00000159840_ENST00000392910|hu_mus|FALSE|FALSE (ssRNA)
RNA: GGGAGUUCUACAGUCCGACGAUCUGGAGCACCAGGGCUGAACUUGGAAACCACGGGAGUAAAUUUAGGAGCCACUGGAGCAAACUUAGGUGCUGGAGUUGGUGCCUGAGAAAGGGGACCCCGGGGCUGUGUAUUAGCAGAAGACAACAGAGGAUUGAGCAUCA
B18: chrX:20248820:20248821:+_ENSMUSG00000001924_ENSMUST00000001989|mus_mus|mus_mus_mus_hu_True|48_58 (ssRNA)
RNA: GGGAGUUCUACAGUCCGACGAUCGGCGAAGUCCGUCACCACAAAGUCAGGUUCUGCCAGUGAGGCCACCAAGGAUUUAAAACUAAUCUUUUUCGGUACUUUGACCUGACUGACGAUGCCUCCACGGAUGUAGUCGGAGAAGUUCAACAGAGGAUUGAGCAUCA
B19: chr2:216981417:216981418:+_ENSG00000079246_ENST00000392132|hu_hu|hu_hu_hu_mus_True|28_88 (ssRNA)
RNA: GGGAGUUCUACAGUCCGACGAUCCUGAUACUGGUCCUUGCCAGCAAGGGGAUUGUCAGUGCCAUCUGUGCCAUAGAGGACUAACGCAAUCUCAUCUUUGCUCUCCGCAAACACCUGUCGUUGGACAAACAUAGUCAUCACUUUCAACAGAGGAUUGAGCAUCA
B20: chr2:179515052:179515053:+_ENSMUSG00000000305_ENSMUST00000000314|mus_hu|mus_mus_mus_hu_False|58_108 (ssRNA)
RNA: GGGAGUUCUACAGUCCGACGAUCGCUUUCCCGCGCAGUCACCGUGAACGCCACCUGCUCGGAGGGGACCUGCAGCUCCCUAGUGGCGAAGACUGUCCCAUCUGCCCCAACUUUGAAGUCCAUGCUGUUGGUCUCAUAUUGUGUCAACAGAGGAUUGAGCAUCA
B21: chrX:153990882:153990883:-_ENSMUSG00000046873_ENSMUST00000058098|mus_hu|motif|central (ssRNA)
RNA: GGGAGUUCUACAGUCCGACGAUCAGCUCCUGAGAGGGAAAUCAGGUACUUGACAAAUGUCUCCACAACCACUGGCAGAUCGGUGCUUAGAAAGUUAAAACGUGGGAUAAAACUGGUGAUGCUCACUGUGUAGUGAAGAUGCAGCAACAGAGGAUUGAGCAUCA
B22: 195013173_195016455_1944_3pUTR_ENSG00000114331_ENST00000326793|human|control|control (ssRNA)
RNA: GGGAGUUCUACAGUCCGACGAUCUUCUCCUUCAGGCUCAUAUAAACUAUUGGCUGACACCGUGGAGGGUAAAGAUUCUCUUCCAUCAUCAGAGCUCUGCUGAAUUCCACUGUCAUUACUUCUGACUGAACUUUGGGCAGAUGCCAACAGAGGAUUGAGCAUCA

biological target: T1, UNK ZnF1-3; assay: nsRBNS (natural sequence RNA bind-n-seq); RBNS binding buffer (assumed for nsRBNS): 25 mM Tris pH 7.5, 150 mM KCl, 3 mM MgCl2, 0.01% Triton X-100, 500 ug/ml BSA, 20 U/ml SUPERase-In, 4 C; UNK is unkempt and MSI1 is Musashi-1; names of the RNAs are library labels; protein concentration not given here; high values mean tight binding

Binder	binding signal
B1	1.05 enrichment R
B2	0.794 enrichment R
B3	0.754 enrichment R
B4	0.715 enrichment R
B5	0.669 enrichment R
B6	1.23 enrichment R
B7	0.767 enrichment R
B8	0.876 enrichment R
B9	0.962 enrichment R
B10	3.09 enrichment R
B11	0.6 enrichment R
B12	0.759 enrichment R
B13	1.62 enrichment R
B14	0.747 enrichment R
B15	2.59 enrichment R
B16	1.49 enrichment R
B17	2.14 enrichment R
B18	1.04 enrichment R
B19	1.13 enrichment R
B20	0.74 enrichment R
B21	2.07 enrichment R
B22	1.01 enrichment R
